The assay has as its target T1, soluble human IL-6R (human, UniProt P08887 20-357).
T1 construct: Expressed in CHO cells and purified from the supernatant; also called hsIL-6R; recombinant human IL6R
T1 sequence: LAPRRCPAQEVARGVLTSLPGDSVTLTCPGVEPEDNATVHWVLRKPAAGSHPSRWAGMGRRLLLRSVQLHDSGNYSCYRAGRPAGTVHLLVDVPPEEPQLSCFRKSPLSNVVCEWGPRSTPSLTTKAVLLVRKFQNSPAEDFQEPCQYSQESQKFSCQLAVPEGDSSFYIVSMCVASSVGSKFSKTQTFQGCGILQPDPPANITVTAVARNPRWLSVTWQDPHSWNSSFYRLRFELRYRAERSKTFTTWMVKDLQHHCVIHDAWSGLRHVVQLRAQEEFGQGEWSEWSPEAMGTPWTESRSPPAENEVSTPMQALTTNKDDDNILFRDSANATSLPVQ
Description: BLI (Octet), in the same way as in Example 3.

B1: 20A11-G1m/VL1-40-lamL (other)
heavy: EVQLVESGGGLVQPGGSLRLSCAASGSVFKINVMAWYRQAPGKGRELVAGIISGGSTSYADSVKGRFTISRDNAKNTLYLQMNSLRPEDTAVYYCAFITTESDYDLGRRYWGQGTLVTVSS[skipping human IgG1 constant region]
light: QSVLTQPPSVSGAPGQRVTISCTGSSSNIGAGYDVHWYQQLPGTAPKLLIYGNSNRPSGVPDRFSGSKSGTSASLAITGLQAEDEADYYCQSYDNSLNAVVFGGGTKLTVLGQPKAAPSVTLFPPSSEELQANKATLVCLISDFYPGAVTVAWKADSSPVKAGVETTTPSKQSNNKYAASSYLSLTPEQWKSHRSYSCQVTHEGSTVEKTVAPTECS
notes: IgG antibody-like molecule
Take B1: the binding result is on record as “binds”.

B2: 20A11-G1m/VL3-21-lamL (other)
heavy: EVQLVESGGGLVQPGGSLRLSCAASGSVFKINVMAWYRQAPGKGRELVAGIISGGSTSYADSVKGRFTISRDNAKNTLYLQMNSLRPEDTAVYYCAFITTESDYDLGRRYWGQGTLVTVSS[skipping human IgG1 constant region]
light: SYVLTQPPSVSVAPGKTARITCGGNNIGSKSVHWYQQKPGQAPVLVIYYDSDRPSGIPERFSGSNSGNTATLTISRVEAGDEADYYCQAWDSSTDVVFGGGTKLTVLGQPKAAPSVTLFPPSSEELQANKATLVCLISDFYPGAVTVAWKADSSPVKAGVETTTPSKQSNNKYAASSYLSLTPEQWKSHRSYSCQVTHEGSTVEKTVAPTECS
notes: IgG antibody-like molecule
For B2, the binding result is given as “binds”.

B3: 20A11-G1m/VL2-14-lamL (other)
heavy: EVQLVESGGGLVQPGGSLRLSCAASGSVFKINVMAWYRQAPGKGRELVAGIISGGSTSYADSVKGRFTISRDNAKNTLYLQMNSLRPEDTAVYYCAFITTESDYDLGRRYWGQGTLVTVSS[skipping human IgG1 constant region]
light: QSALTQPASVSGSPGQSITISCTGTSSDVGGYNYVSWYQQHPGKAPKLMIYEVSNRPSGVSNRFSGSKSGNTASLTISGLQAEDEADYYCSSYRSGYTLVVFGGGTKLTVLGQPKAAPSVTLFPPSSEELQANKATLVCLISDFYPGAVTVAWKADSSPVKAGVETTTPSKQSNNKYAASSYLSLTPEQWKSHRSYSCQVTHEGSTVEKTVAPTECS
notes: IgG antibody-like molecule
B3: the binding result was “binds”.

The record behind these values is patent US20240150476A1 (Chugai, published 2024).
